Key:
[1] = tested on: Trop-2-positive BxPC-3 tumor cells; assay: Binding activity to cells positive for Trop-2 (flow cytometry); settings: binding to BxPC-3 cells, on ice 1 hour, n = 2
Protocol: Different concentrations (1, 3, 10, 30, 100, 300, 1000, 3000, 10000, 30000, and 100000 ng/mL) of fluorescently labeled Trop2-ADC-14 and the mAb in Trop2-ADC-14 (i.e., antibody h23-12) were incubated with BxPC-3 cells (purchased from: ATCC) on ice for 1 hour in dark, and then the cells were centrifuged to remove supernatant, washed with PBS, re-suspended, and the fluorescence intensity of the drugs bound to the cells was measured with a flow cytometer (BD ACCURI C6 PLUS). The experiment was repeated once.

[2] = tested on: HS-746T tumor cells expressing antigen of low abundance; assay: Cell killing effect in vitro on tumor cells expressing antigen of low abundance (flow cytometry cell count); assay type: cell-based; settings: 168 hours
Protocol: HS-746T cells were purchased from ATCC. The cells were cultured in RPMI 1640/IMEM (1:1) containing 10% Fetal Bovine Serum (FBS) with penicillin and streptomycin supplemented simultaneously, and cultured at 37° C. in air containing 5% CO2 in an incubator.
After inoculation, the cells were treated for 168 hours respectively with 0.1 g/mL and 1 g/mL Trop2-ADC-1, Trop2-ADC-2, Trop2-ADC-5, Trop2-ADC-10, and Trop2-ADC-14, and then the cells were harvested and counted. Next, the cells were incubated with Dylight 488 NHS Ester labeled ADCs targeting Trop-2 described above at 4° C. for 1 hour in dark, and then centrifuged to remove supernatant, re-suspended in phosphate buffer (PBS, pH7.4), washed with PBS (pH7.4) three times, and the number of HS-746T cells was detected and calculated using a flow cytometer BD ACCURI C6 PLUS.

B1: Trop2-ADC-14 (conjugate)
heavy: QVQLVQSGAEVKKPGASVKVSCKASGYTFTSYWMHWVRQAPGQGLEWMGEITPSDNYGSYNQKFKGRVTITRDTSTSTAYMELSSLRSEDTAVYYCARGHGNYVSFDYWGQGTLVTVSSASTKGPSVFPLAPSSKSTSGGTAALGCLVKDYFPEPVTVSWNSGALTSGVHTFPAVLQSSGLYSLSSVVTVPSSSLGTQTYICNVNHKPSNTKVDKRV[not shown - human IgG1 Fc]
light: DIQMTQSPSSLSASVGDRVTITCRASQDISNYLNWYQQKPGKAPKLLIYYTSRLESGVPSRFSGSGSGTDFTLTISSLQPEDFATYFCQQGYTLPPYTFGQGTKLEIKRTVAAPSVFIFPPSDEQLKSGTASVVCLLNNFYPREAKVQWKVDNALQSGNSQESVTEQDSKDSTYSLSSTLTLSKADYEKHKVYACEVTHQGLSSPVTKSFNRGEC
In the case of B1, the “EC50 (ng/mL, mean ± SD)” value [1] is reported as 1296.0 ± 155.6 ng/mL, the “Inhibition (%)” value ([2]; 0.1 μg/mL) is reported as 40.5% and the “Number of cells (single cells having low expression)” value ([2]; 0.1 μg/mL) is reported as 210600. The “Inhibition (%)” value ([2]; 1 μg/mL) was 41.7% and the “Number of cells (single cells having low expression)” value ([2]; 1 μg/mL) was 206100.
